According to PMC12820563, “FoxP3 forms a head-to-head dimer in vivo and stabilizes its multimerization on adjacent microsatellites”:
The list shows a part of the results.

Each sequence was assayed against T1, MBP-FoxP1dN (Mus musculus, UniProt P58462 326-579) (assay: PD-seq (MBP pull-down with sequencing); 20 mM Tris-HCl pH 7.5, 100 mM NaCl, 1.5 mM MgCl2, 0.4 uM protein, 0.1 uM dsDNA library, 30 min, room temperature, amylose pull-down; high values mean tight binding). Conditions: protein: recombinant; tags: His6-MBP; chain copies: 2; dsDNA, one strand shown.
T1 sequence: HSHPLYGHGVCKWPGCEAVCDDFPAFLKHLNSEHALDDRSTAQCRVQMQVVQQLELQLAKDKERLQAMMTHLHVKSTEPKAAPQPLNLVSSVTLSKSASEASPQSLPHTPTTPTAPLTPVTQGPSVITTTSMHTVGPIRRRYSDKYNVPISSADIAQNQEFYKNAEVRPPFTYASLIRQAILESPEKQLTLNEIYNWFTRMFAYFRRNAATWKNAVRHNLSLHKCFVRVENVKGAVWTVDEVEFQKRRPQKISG
Summary of the method: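 His6-MBP-tagged mouse FoxP3 or FoxP1 fragment lacking the N-terminus, expressed in E. coli, was mixed at 0.4 µM with 0.1 µM Klenow-filled double-stranded degenerate DNA library. Incubation was 30 min at room temperature in Tris pH 7.5 buffer with NaCl and MgCl2. Complexes were caught on amylose resin and washed three times; DNA was released with proteinase K, PCR-barcoded and Illumina-sequenced. Binding is reads-per-million enrichment, pull-down over input, with replicates pooled.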

Sequence | binding signal
GATGATTGTTCTCCCAGCTGATGAATTTAATCGGTCGAGTAAACAAATTTTCCTAATCTTTCTGTTCAAGCGCCATCTAC | 0.85 RPM ratio (pull-down/input)
GATGATTGTTCTCCCAGCTGATGAATTGCAGTACTCGAGTAAACAAATTTTCCTAATCTTTCTGTTCAAGCGCCATCTAC | 1.04 RPM ratio (pull-down/input)
GATGATTGTTCTCCCAGCTGATGAATTAACAAGTTCGAGTAAACAAATTTTCCTAATCTTTCTGTTCAAGCGCCATCTAC | 1.13 RPM ratio (pull-down/input)
GATGATTGTTCTCCCAGCTGATGAATTTTCGAGGTCGAGTAAACAAATTTTCCTAATCTTTCTGTTCAAGCGCCATCTAC | 0.866 RPM ratio (pull-down/input)
GATGATTGTTCTCCCAGCTGATGAATTAGAATCATCGAGTAAACAAATTTTCCTAATCTTTCTGTTCAAGCGCCATCTAC | 1.05 RPM ratio (pull-down/input)
GATGATTGTTCTCCCAGCTGATGAATTTGCCACGTCGAGTAAACAAATTTTCCTAATCTTTCTGTTCAAGCGCCATCTAC | 0.932 RPM ratio (pull-down/input)
GATGATTGTTCTCCCAGCTGATGAATTTGTTGACTCGAGTAAACAAATTTTCCTAATCTTTCTGTTCAAGCGCCATCTAC | 2.35 RPM ratio (pull-down/input)
GATGATTGTTCTCCCAGCTGATGAATTACACGGATCGAGTAAACAAATTTTCCTAATCTTTCTGTTCAAGCGCCATCTAC | 0.998 RPM ratio (pull-down/input)
GATGATTGTTCTCCCAGCTGATGAATTCGATGTCTCGAGTAAACAAATTTTCCTAATCTTTCTGTTCAAGCGCCATCTAC | 0.94 RPM ratio (pull-down/input)
GATGATTGTTCTCCCAGCTGATGAATTCTGCGATTCGAGTAAACAAATTTTCCTAATCTTTCTGTTCAAGCGCCATCTAC | 0.856 RPM ratio (pull-down/input)
GATGATTGTTCTCCCAGCTGATGAATTGGCGCAATCGAGTAAACAAATTTTCCTAATCTTTCTGTTCAAGCGCCATCTAC | 1.2 RPM ratio (pull-down/input)
GATGATTGTTCTCCCAGCTGATGAATTGTGATCCTCGAGTAAACAAATTTTCCTAATCTTTCTGTTCAAGCGCCATCTAC | 1.12 RPM ratio (pull-down/input)
GATGATTGTTCTCCCAGCTGATGAATTATATCAGTCGAGTAAACAAATTTTCCTAATCTTTCTGTTCAAGCGCCATCTAC | 0.952 RPM ratio (pull-down/input)
GATGATTGTTCTCCCAGCTGATGAATTATTGGAATCGAGTAAACAAATTTTCCTAATCTTTCTGTTCAAGCGCCATCTAC | 1.05 RPM ratio (pull-down/input)
GATGATTGTTCTCCCAGCTGATGAATTGGATCCGTCGAGTAAACAAATTTTCCTAATCTTTCTGTTCAAGCGCCATCTAC | 0.821 RPM ratio (pull-down/input)
GATGATTGTTCTCCCAGCTGATGAATTGCTCTAGTCGAGTAAACAAATTTTCCTAATCTTTCTGTTCAAGCGCCATCTAC | 0.974 RPM ratio (pull-down/input)
GATGATTGTTCTCCCAGCTGATGAATTGCTAAACTCGAGTAAACAAATTTTCCTAATCTTTCTGTTCAAGCGCCATCTAC | 1.11 RPM ratio (pull-down/input)
GATGATTGTTCTCCCAGCTGATGAATTTGACCGGTCGAGTAAACAAATTTTCCTAATCTTTCTGTTCAAGCGCCATCTAC | 0.726 RPM ratio (pull-down/input)
GATGATTGTTCTCCCAGCTGATGAATTACTGCAGTCGAGTAAACAAATTTTCCTAATCTTTCTGTTCAAGCGCCATCTAC | 1 RPM ratio (pull-down/input)
GATGATTGTTCTCCCAGCTGATGAATTTGTTGCTTCGAGTAAACAAATTTTCCTAATCTTTCTGTTCAAGCGCCATCTAC | 1.54 RPM ratio (pull-down/input)
GATGATTGTTCTCCCAGCTGATGAATTACTCTAATCGAGTAAACAAATTTTCCTAATCTTTCTGTTCAAGCGCCATCTAC | 1.17 RPM ratio (pull-down/input)

Sequence | binding signal
GATGATTGTTCTCCCAGCTGATGAATTGGCCAATTCGAGTAAACAAATTTTCCTAATCTTTCTGTTCAAGCGCCATCTAC | 0.88 RPM ratio (pull-down/input)
GATGATTGTTCTCCCAGCTGATGAATTTTGATGGTCGAGTAAACAAATTTTCCTAATCTTTCTGTTCAAGCGCCATCTAC | 1.04 RPM ratio (pull-down/input)
GATGATTGTTCTCCCAGCTGATGAATTTATCTTCTCGAGTAAACAAATTTTCCTAATCTTTCTGTTCAAGCGCCATCTAC | 1.08 RPM ratio (pull-down/input)
GATGATTGTTCTCCCAGCTGATGAATTACATGTATCGAGTAAACAAATTTTCCTAATCTTTCTGTTCAAGCGCCATCTAC | 1.41 RPM ratio (pull-down/input)
GATGATTGTTCTCCCAGCTGATGAATTGAATTAGTCGAGTAAACAAATTTTCCTAATCTTTCTGTTCAAGCGCCATCTAC | 0.836 RPM ratio (pull-down/input)
GATGATTGTTCTCCCAGCTGATGAATTGGACGACTCGAGTAAACAAATTTTCCTAATCTTTCTGTTCAAGCGCCATCTAC | 0.788 RPM ratio (pull-down/input)
GATGATTGTTCTCCCAGCTGATGAATTCGGTATATCGAGTAAACAAATTTTCCTAATCTTTCTGTTCAAGCGCCATCTAC | 1.09 RPM ratio (pull-down/input)
GATGATTGTTCTCCCAGCTGATGAATTAGGTGAATCGAGTAAACAAATTTTCCTAATCTTTCTGTTCAAGCGCCATCTAC | 0.999 RPM ratio (pull-down/input)
GATGATTGTTCTCCCAGCTGATGAATTACCTGGTTCGAGTAAACAAATTTTCCTAATCTTTCTGTTCAAGCGCCATCTAC | 0.928 RPM ratio (pull-down/input)
GATGATTGTTCTCCCAGCTGATGAATTCCTTGGGTCGAGTAAACAAATTTTCCTAATCTTTCTGTTCAAGCGCCATCTAC | 0.74 RPM ratio (pull-down/input)
GATGATTGTTCTCCCAGCTGATGAATTAGGTATGTCGAGTAAACAAATTTTCCTAATCTTTCTGTTCAAGCGCCATCTAC | 0.967 RPM ratio (pull-down/input)
GATGATTGTTCTCCCAGCTGATGAATTCAGAAGATCGAGTAAACAAATTTTCCTAATCTTTCTGTTCAAGCGCCATCTAC | 0.738 RPM ratio (pull-down/input)
GATGATTGTTCTCCCAGCTGATGAATTGGTGTAGTCGAGTAAACAAATTTTCCTAATCTTTCTGTTCAAGCGCCATCTAC | 1.1 RPM ratio (pull-down/input)
GATGATTGTTCTCCCAGCTGATGAATTCATTCTCTCGAGTAAACAAATTTTCCTAATCTTTCTGTTCAAGCGCCATCTAC | 0.797 RPM ratio (pull-down/input)
GATGATTGTTCTCCCAGCTGATGAATTCCAAGATTCGAGTAAACAAATTTTCCTAATCTTTCTGTTCAAGCGCCATCTAC | 0.954 RPM ratio (pull-down/input)
GATGATTGTTCTCCCAGCTGATGAATTGTGAGGATCGAGTAAACAAATTTTCCTAATCTTTCTGTTCAAGCGCCATCTAC | 0.92 RPM ratio (pull-down/input)
GATGATTGTTCTCCCAGCTGATGAATTCTTACAATCGAGTAAACAAATTTTCCTAATCTTTCTGTTCAAGCGCCATCTAC | 1.13 RPM ratio (pull-down/input)
GATGATTGTTCTCCCAGCTGATGAATTGACACCATCGAGTAAACAAATTTTCCTAATCTTTCTGTTCAAGCGCCATCTAC | 1.24 RPM ratio (pull-down/input)
GATGATTGTTCTCCCAGCTGATGAATTAGTCTATTCGAGTAAACAAATTTTCCTAATCTTTCTGTTCAAGCGCCATCTAC | 0.914 RPM ratio (pull-down/input)
GATGATTGTTCTCCCAGCTGATGAATTCCCGTCGTCGAGTAAACAAATTTTCCTAATCTTTCTGTTCAAGCGCCATCTAC | 0.775 RPM ratio (pull-down/input)
GATGATTGTTCTCCCAGCTGATGAATTCGATTGCTCGAGTAAACAAATTTTCCTAATCTTTCTGTTCAAGCGCCATCTAC | 0.842 RPM ratio (pull-down/input)

Sequence | binding signal
GATGATTGTTCTCCCAGCTGATGAATTGTGCTTCTCGAGTAAACAAATTTTCCTAATCTTTCTGTTCAAGCGCCATCTAC | 1.04 RPM ratio (pull-down/input)
GATGATTGTTCTCCCAGCTGATGAATTTAAGACTTCGAGTAAACAAATTTTCCTAATCTTTCTGTTCAAGCGCCATCTAC | 0.81 RPM ratio (pull-down/input)
GATGATTGTTCTCCCAGCTGATGAATTCGTTATTTCGAGTAAACAAATTTTCCTAATCTTTCTGTTCAAGCGCCATCTAC | 1.14 RPM ratio (pull-down/input)
GATGATTGTTCTCCCAGCTGATGAATTAGTCTGTTCGAGTAAACAAATTTTCCTAATCTTTCTGTTCAAGCGCCATCTAC | 0.901 RPM ratio (pull-down/input)
GATGATTGTTCTCCCAGCTGATGAATTGCTGTGATCGAGTAAACAAATTTTCCTAATCTTTCTGTTCAAGCGCCATCTAC | 1.12 RPM ratio (pull-down/input)
GATGATTGTTCTCCCAGCTGATGAATTGCGCGGTTCGAGTAAACAAATTTTCCTAATCTTTCTGTTCAAGCGCCATCTAC | 1.07 RPM ratio (pull-down/input)
GATGATTGTTCTCCCAGCTGATGAATTTCCCGACTCGAGTAAACAAATTTTCCTAATCTTTCTGTTCAAGCGCCATCTAC | 0.776 RPM ratio (pull-down/input)
GATGATTGTTCTCCCAGCTGATGAATTAACTCATTCGAGTAAACAAATTTTCCTAATCTTTCTGTTCAAGCGCCATCTAC | 0.93 RPM ratio (pull-down/input)
GATGATTGTTCTCCCAGCTGATGAATTGGATTTATCGAGTAAACAAATTTTCCTAATCTTTCTGTTCAAGCGCCATCTAC | 1.1 RPM ratio (pull-down/input)
GATGATTGTTCTCCCAGCTGATGAATTACAGATCTCGAGTAAACAAATTTTCCTAATCTTTCTGTTCAAGCGCCATCTAC | 1.14 RPM ratio (pull-down/input)
GATGATTGTTCTCCCAGCTGATGAATTCTTACATTCGAGTAAACAAATTTTCCTAATCTTTCTGTTCAAGCGCCATCTAC | 0.965 RPM ratio (pull-down/input)
GATGATTGTTCTCCCAGCTGATGAATTGATTACATCGAGTAAACAAATTTTCCTAATCTTTCTGTTCAAGCGCCATCTAC | 1.58 RPM ratio (pull-down/input)
GATGATTGTTCTCCCAGCTGATGAATTCCTGTTTTCGAGTAAACAAATTTTCCTAATCTTTCTGTTCAAGCGCCATCTAC | 2.04 RPM ratio (pull-down/input)
GATGATTGTTCTCCCAGCTGATGAATTGGGTTAGTCGAGTAAACAAATTTTCCTAATCTTTCTGTTCAAGCGCCATCTAC | 0.802 RPM ratio (pull-down/input)
GATGATTGTTCTCCCAGCTGATGAATTGGCTCTATCGAGTAAACAAATTTTCCTAATCTTTCTGTTCAAGCGCCATCTAC | 0.905 RPM ratio (pull-down/input)
GATGATTGTTCTCCCAGCTGATGAATTAAACTCGTCGAGTAAACAAATTTTCCTAATCTTTCTGTTCAAGCGCCATCTAC | 0.998 RPM ratio (pull-down/input)
GATGATTGTTCTCCCAGCTGATGAATTGACCGGATCGAGTAAACAAATTTTCCTAATCTTTCTGTTCAAGCGCCATCTAC | 0.857 RPM ratio (pull-down/input)
GATGATTGTTCTCCCAGCTGATGAATTGGGAGACTCGAGTAAACAAATTTTCCTAATCTTTCTGTTCAAGCGCCATCTAC | 0.778 RPM ratio (pull-down/input)
GATGATTGTTCTCCCAGCTGATGAATTTCGGGGGTCGAGTAAACAAATTTTCCTAATCTTTCTGTTCAAGCGCCATCTAC | 0.798 RPM ratio (pull-down/input)
GATGATTGTTCTCCCAGCTGATGAATTAACACAATCGAGTAAACAAATTTTCCTAATCTTTCTGTTCAAGCGCCATCTAC | 1.57 RPM ratio (pull-down/input)
GATGATTGTTCTCCCAGCTGATGAATTTTACCCCTCGAGTAAACAAATTTTCCTAATCTTTCTGTTCAAGCGCCATCTAC | 0.863 RPM ratio (pull-down/input)
